Whole data set: some 33,000 sequences, median “E-score (-0.5 to 0.5)” near -0.041, cut for the highest 2% near 0.37. Some of the results follow.
The sequences below were run against T1, Ecm22 (UniProt Q05958) (assay: PBM E-score (8-mer binding enrichment) (E-score (-0.5 to 0.5)); higher = stronger / more preferred TF binding; most listed sequences are background and not binding sites). Conditions: protein concentration: 200 nM; construct: GST-full length.
T1 sequence: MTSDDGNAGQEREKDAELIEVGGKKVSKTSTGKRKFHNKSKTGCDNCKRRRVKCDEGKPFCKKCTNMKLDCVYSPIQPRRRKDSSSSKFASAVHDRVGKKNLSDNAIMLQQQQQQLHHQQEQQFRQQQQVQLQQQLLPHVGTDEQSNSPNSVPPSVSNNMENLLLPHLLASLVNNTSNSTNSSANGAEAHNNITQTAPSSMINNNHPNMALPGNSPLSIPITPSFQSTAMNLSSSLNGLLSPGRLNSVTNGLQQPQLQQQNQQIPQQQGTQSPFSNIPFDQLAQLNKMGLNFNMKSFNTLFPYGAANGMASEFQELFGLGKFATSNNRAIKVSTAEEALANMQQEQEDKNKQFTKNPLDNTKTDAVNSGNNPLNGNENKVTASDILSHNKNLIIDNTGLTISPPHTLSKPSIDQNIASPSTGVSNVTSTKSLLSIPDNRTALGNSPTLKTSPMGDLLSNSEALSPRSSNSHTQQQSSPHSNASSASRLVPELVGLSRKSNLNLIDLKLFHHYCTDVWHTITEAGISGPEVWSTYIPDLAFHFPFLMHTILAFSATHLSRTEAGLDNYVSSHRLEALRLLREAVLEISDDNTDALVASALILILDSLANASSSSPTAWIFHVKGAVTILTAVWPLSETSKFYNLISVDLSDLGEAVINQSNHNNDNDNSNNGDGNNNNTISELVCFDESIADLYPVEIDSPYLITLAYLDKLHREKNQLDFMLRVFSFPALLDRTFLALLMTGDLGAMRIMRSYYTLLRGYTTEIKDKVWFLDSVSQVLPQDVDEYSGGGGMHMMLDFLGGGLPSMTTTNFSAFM
Method: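 Universal 'all 10-mer' protein binding microarrays (Agilent AMADID 015681) probed with GST-tagged S. cerevisiae TFs (full-length or DBD) made by in vitro transcription/translation (PURExpress), about 100-200 nM. Bound TF was detected with fluorescent anti-GST. Each ungapped 8-mer (which stands for itself and its reverse complement) is scored by the PBM enrichment score (E-score), a modified Wilcoxon-Mann-Whitney statistic from -0.5 to +0.5, computed with the Universal PBM Analysis Suite. Scale: above 0.35 generally sequence-specific binding.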

Sequence | PBM E-score
CCCCTTAA | -0.398
AACGGGAG | 0.21
TCACGCGA | 0.227
GCACGCAC | -0.0706
GAGCTTTA | 0.0312
GCGGGACC | -0.0823
AAGCTGCT | -0.27
TAGACGGA | -0.0672
ACACGTAG | -0.295
ACCTCACT | -0.094
CCTCGAGA | -0.0721
CCCGACGA | 0.112
CCTAGTAG | -0.141
ATTGATAA | -0.117
CCTGGTAA | -0.0304
GTCCCGGA | 0.00987
ACCGAATA | 0.18
CAAGACGG | -0.286
CAGATGGG | -0.356
ACCATCGT | 0.244
AGCACAAA | -0.0863
GAGTTTTA | 0.0469
CACCATGC | -0.195
GCGGAATA | -0.0934
GCATGAAC | 0.0165

Sequence | PBM E-score
CGGCGTTC | 0.117
CATAATCG | 0.183
ATTAAGTC | -0.121
AAGAGGTG | -0.0239
CTACCGCA | -0.257
ACTCTAAA | 0.0104
CTGAAGTC | -0.0259
AGCGCGCT | 0.231
GCTTGCCA | -0.0782
TCGGCGAA | 0.00046
AGGTATTA | -0.0627
ACTACTAG | -0.0821
AGAAGTCC | -0.00647
CTGAACGC | 0.023
CAATACGC | -0.0345
CCGGCCGG | 0.101
AGGTGAGG | -0.0427
GCCCTGCC | -0.0093
CCCGGCAA | -0.0692
GCATCACC | -0.295
TTCCTAAA | -0.0909
GGTGACAA | -0.0974
ACAATCGA | -0.0404
ACGCGCGG | 0.0451
CTCATAGA | -0.0587

Sequence | PBM E-score
ACAAAGTG | -0.033
TATACTGA | 0.182
GCCATCGC | -0.0403
ATGAGGAC | -0.161
AGATAATG | 0.14
CGTTTGCC | 0.285
CACGCCGG | -0.0956
TGAAAAAA | -0.0832
ATTATTAA | -0.101
TGTGATAA | -0.0313
AAGTGCAA | -0.0854
CACATGGA | -0.241
TGATTCAA | -0.0999
ATGAATAC | 0.21
TCGCCCAA | 0.0204
CAACCGGG | -0.144
GAATAAAA | 0.0524
CGTCGGTA | 0.153
AGTCACCC | -0.179
GTTGTAAA | -0.0257
ATATGATG | -0.146
TCCTAAGA | -0.185
AAACATGG | -0.11
ATGCACAA | -0.108
AGGGCAGC | -0.249

Sequence | PBM E-score
ACCAGCGC | -0.0753
GCTTGATA | -0.0303
AACGGGAA | 0.259
GCATACAA | 0.0278
GCATCCCC | -0.0293
ACGTGTAG | -0.0139
ACCACGTG | -0.00409
ACGGCGAG | 0.214
GGACTCTA | -0.287
ATATCGGG | -0.0462
TCAAATGA | -0.249
AATGAAGT | -0.0367
CGGAGGGA | -0.0593
GAGAAACA | -0.0175
GAGTGTGA | 0.185
GCAGCGGC | -0.0914
AAAGCCGC | 0.0696
ATCCCTAA | -0.113
CGGCCAAC | -0.00659
CACACGTA | 0.0253
CCGTTGCG | 0.304
ACGGTTAT | 0.337
CAATGAGA | -0.211
ACCGTCCT | -0.273
AGGTAGTG | -0.0796

Sequence | PBM E-score
AACGATTG | 0.384
AAATTGGA | -0.097
ACCAGGTA | -0.0162
CCTTGGAG | -0.1
ATGTCGGA | 0.0752
GAATTACA | 0.0829
GCGGGAAA | 0.162
CTCTCGCC | -0.0362
GGCTGAAA | -0.0667
AGATCGAA | -0.0769
CGTGACCC | 0.0729
AGTGGCCG | -0.179
CCCATCGC | -0.0258
GTTTCTTA | 0.0254
ATTCATCC | 0.029
AAAAGGTT | -0.08
AGATAGTC | -0.0644
CCCTGAGG | -0.24
CCATAATA | 0.0684
CAGTGATC | -0.0339
TCTAGAGA | -0.292
CGTATTAG | 0.344
GATTAGGA | -0.246
CTCAGGAA | -0.256
AGTTTAAG | -0.127

Sequence | PBM E-score
TTAAGCAA | -0.0205
CTGAGACA | -0.149
ATCCAGTG | -0.169
CCGCGTTA | 0.115
CTCCTGGA | -0.187
GCGCTCGA | 0.0495
TAATTCTA | 0.0717
ACGTCGGG | 0.15
GCCGGACA | 0.0133
GACTGTGA | -0.27
AGCCCATA | -0.248
AGCTCTTA | -0.139
GGCCGCCA | -0.341
CCATCTCC | 0.0176
CTAGATGC | -0.068
AGGATTCC | -0.203
AGGAACCT | -0.145
ATGTTATA | 0.0753
ACTCGCTC | 0.354
ATAGGCAA | -0.116
CGTCGGAA | 0.203
AGGCTTAA | -0.168
AAATGAAA | 0.176
CGACTCGA | 0.0317
ATCTCCGC | -0.0922

Sequence | PBM E-score
GGTATGTA | -0.183
CAAGAACA | -0.0215
CCACTTGC | -0.205
ACCCATCT | -0.0835
CTCCGAAA | -0.0756
CGCAAAGC | 0.202
ACGAGGGA | 0.41
GAGATGGA | -0.0984
CTGTCTCA | -0.242
AGGGCCAC | -0.167
AGTGCGGA | 0.0323
CCGGCTCC | 0.00262
CAATATCC | -0.0923
GTTCGACA | 0.0668
AGCTTTGG | -0.0792
AAACAGAT | 0.0559
ACGTAATG | 0.0934
ATCCCTGA | -0.129
AGGGTCCC | -0.283
CCGAAAAG | 0.147
GCGAAGCC | 0.0234
GTGCCAAC | -0.0419
